Data on 77 molecules can be found in ChEMBL document CHEMBL1201862, “PubChem BioAssay data set” (2004).

“And” between values parts separate entries of the source, which are not always exact repeats. Identical values can stand only once.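 Cultured in 96-well plates, cells were exposed to test compound for 48 hours across five concentrations. GI50 is the concentration that inhibits growth by half.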 The source made the active and inactive calls. Cut-off read from the data, not from the text of the source: active = GI50 up to about 1.1 µM and inactive = higher. Bounds are passed on as bounds.

This assay relates to NCI-H322M. The assay can be described thus: NCI-60 cell line screen, 48 h.
Regarding `Cc1cc(O)c2c(=O)c3ccccc3[nH]c2c1`, the GI50 is inactive: 42.6 µM.

`CCOC(=O)C1C(=O)CC(C)(O)C(C(=O)OCC)C1c1ccc(OC)cc1` (configuration not stated): the GI50 was inactive: > 100 µM.

On to `CCC1NC(=O)C(NC(=O)c2ncccc2O)C(C)OC(=O)C(c2ccccc2)NC(=O)C2CC(=O)CCN2C(=O)C(Cc2ccccc2)N(C)C(=O)C2CCCN2C1=O` (configuration not stated), for which the GI50 is inactive: > 100 µM.

In the case of `Cc1cn2c(/C=N/NC(=N)N)c(-c3cc([N+](=O)[O-])c(Cl)cc3Cl)nc2s1`, the GI50 is inactive: 2.1 µM.

Turning to `Cc1ccc([S+]([O-])c2sccc2C=O)cc1` (configuration not stated), the GI50 was inactive: 50.5 µM.

As to `N=C(N)SCCc1ccccn1`, the GI50 is inactive: > 100 µM.

On to `CC(=O)O[C@H]1C(=O)[C@@]2(C)[C@H]([C@H](OC(=O)c3ccccc3)[C@]3(O)C[C@H](OC(=O)[C@H](O)[C@@H](NC(=O)c4ccc(N)cc4)c4ccccc4)C(C)=C1C3(C)C)[C@]1(OC(C)=O)CO[C@@H]1C[C@@H]2O`, for which the GI50 was active: < 0.005 µM.

With `COc1ccc(/C=C2\C[C@H]3[C@@H]4CCC5=C/C(=N/O)CC[C@]5(C)[C@H]4CC[C@]3(C)\C2=N\O)cc1`, the GI50 was inactive: 10.1 µM.

For `CC12O[C@H](c3ccccc3)[C@H](c3ccccc3)N1C(=O)C1(C(=O)OCc3ccccc3)CC12` (some centres not stated), the GI50 is inactive: > 100 µM.

As to `O=C1CSC(c2cccc(Cl)c2)N1c1ccc(-c2ccc(-n3c(-c4ccccc4)nc4ccccc4c3=O)cc2)cc1` (configuration not stated), the GI50 was inactive: > 100 µM.

On to `C/N=c1/ss/c(=N\C(SC)=[N+](C)C)n1C.[O-][Cl+3]([O-])([O-])[O-]`, for which the GI50 is inactive: > 100 µM.

Consider `c1ccc2c(c1)c1c3c(c4c(n32)=NCCN4)CCC1`, for which the GI50 is inactive: 33.5 µM.

In the case of `N#CCC(=O)N/N=C1/C(=O)N(c2cc(Cl)ccc2Cl)C(=O)C(=O)C1c1nc2ccccc2s1` (configuration not stated), the GI50 was inactive: > 100 µM.

For `COP1(=O)CC2C(Cl)(Cl)C2(C)C1` (configuration not stated), the GI50 is inactive: > 100 µM.

With `Cc1cn([C@@H]2O[C@H](CO[Si](C)(C)C(C)(C)C)[C@]3(O[C@H]3C(=O)NN)[C@H]2O[Si](C)(C)C(C)(C)C)c(=O)[nH]c1=O`, the GI50 is inactive: 12.5 µM.

As for `COc1cc(-c2ccccc2)cn2c1nc1ccccc12`, the GI50 is inactive: > 10 µM.

In the case of `CC(C)CNc1nc2ncnc(N)c2[nH]1`, the GI50 is inactive: > 100 µM.

Consider `O=C(O)CCC1CCc2cccc3occ1c23` (configuration not stated), for which the GI50 is inactive: > 100 µM.

Turning to `O=C(CCc1ccc(O)c(O)c1)NCCc1cc(OCc2ccccc2)cc(OCc2ccccc2)c1`, the GI50 is inactive: 15.5 µM.

Consider `CC(=O)NC(Cc1ccccc1)NC(=O)O` (configuration not stated), for which the GI50 is inactive: > 100 µM.

In the case of `COc1ccc(CC2=NCCc3cc(OC)c(OC)cc32)cc1Br`, the GI50 was inactive: 12.7 µM.

Consider `COc1ccc(C2C3CCc4ccccc4C3=NN2S(=O)(=O)c2ccc(Cl)cc2)cc1` (configuration not stated), for which the GI50 was inactive: 72.8 µM.

Regarding `COc1cc(/C=C2\C(=O)N(c3cccc(NC(C)=O)c3)C(c3ccccc3)S2(=O)=O)cc(OC)c1OC` (configuration not stated), the GI50 was inactive: > 100 µM.

Regarding `O=C(OC[C@H]1C[C@H]2C(=O)CCC[C@H]2O1)c1ccccc1`, the GI50 was inactive: > 100 µM.

Turning to `COC(=N)CCCl`, the GI50 is inactive: > 100 µM.

Consider `Nc1cc(CO)cc(Nc2c3ccccc3nc3occc23)c1`, for which the GI50 was inactive: > 100 µM.

Regarding `O=c1[nH]c2ccccc2c2oc(-c3ccccc3)nc12`, the GI50 was inactive: 23.9 µM.

On to `COC(=O)C1Cc2c(n(C)c3ccccc23)C(CCC(=O)O)N1Cc1ccccc1` (configuration not stated), for which the GI50 was inactive: 35.3 µM.

As for `Oc1c2c(c(O)c3ccccc13)C1(N=N2)c2ccccc2Oc2ccccc21`, the GI50 is inactive: 14.3 µM.

As for `CC1(C)CC(=O)c2c(nc3c(ccc4ccccc43)c2-c2ccc(NC(=O)CCCCCCCCC(=O)Nc3ccc(-c4c5c(nc6c4ccc4ccccc46)CC(C)(C)CC5=O)cc3)cc2)C1`, the GI50 was inactive: > 100 µM.

As for `Nc1ccc(CCN2CCN(c3cccc(C(F)(F)F)c3)CC2)cc1`, the GI50 was inactive: 39.4 µM.

As for `CC1=NN(C(=O)c2ccncc2)C(=O)C1/N=N/c1ccc2ccccc2c1` (configuration not stated), the GI50 was inactive: > 100 µM.

Turning to `CCC(=O)NI1OC(=O)c2ccccc21`, the GI50 is inactive: > 100 µM.

As to `Cc1ccc(NC(=O)/C(=N\Nc2ccc([N+](=O)[O-])cc2[N+](=O)[O-])C2C(=O)NC(=O)NC2=O)cc1`, the GI50 is inactive: > 100 µM.

For `CCCCc1c2c(nc3c1CCCC3=O)C(=O)CCC2`, the GI50 was inactive: > 100 µM.

Consider `COC1OC(COC(=O)NCCCCC(=O)C(F)(F)C(F)(F)C(F)(F)C(F)(F)C(F)(F)C(F)(F)C(F)(F)F)C(O)C(O)C1O` (configuration not stated), for which the GI50 is inactive: 17.8 µM and inactive: 12.2 µM.

With `C=CCn1c(-c2ccc([N+](=O)[O-])cc2)cs/c1=N\C(P(=O)(O)O)P(=O)(O)O`, the GI50 is inactive: > 100 µM.

Turning to `O=C1CSC(=S)N1c1ccco1`, the GI50 was inactive: > 100 µM.

Regarding `Cc1cc(NS(=O)(=O)c2ccc(NC(=O)c3cccc4c(Nc5ccc(S(=O)(=O)N=C(N)N)cc5)c5ccccc5nc34)cc2)no1`, the GI50 was inactive: > 100 µM.

For the molecule `C=C1C(=O)O[C@@]23C1CC[C@@H](C)C2CC[C@@]1(C)OC31` (some centres not stated), the GI50 is inactive: 17.6 µM.

As for `Oc1nncc2[nH]c(-c3ccccc3)cc12`, the GI50 is inactive: > 100 µM.

For `Cc1c2c(c(C)c3c4c(oc13)CCCC4)C=NCC2`, the GI50 was inactive: 13.6 µM.

With `COCCOCCOCCOc1cccc2c1C(=O)c1cccc(OCCOCCOCCOC)c1C2=O`, the GI50 was inactive: > 100 µM.

For the molecule `c1ccc(-c2cc(C3CO3)c3ccccc3n2)cc1` (configuration not stated), the GI50 is inactive: 18.7 µM.

As for `COc1cc([C@@H]2c3cc4c(cc3[C@H](OC3OC5COC(C(C)C)OC5C(O)C3O)C3COC(=O)[C@@H]32)OCO4)cc(OC)c1OC` (some centres not stated), the GI50 is inactive: 4.02 µM.

Turning to `C[n+]1ccn2c3nc4ccccc4nc3c([O-])c(C#N)c21`, the GI50 was inactive: > 100 µM.

On to `CC1=C(O)C(=O)c2cn(C)cc2C1=O`, for which the GI50 is inactive: > 100 µM.

Take `O=C1C=C(Br)c2c(-c3ccccc3)oc3cccc1c23`: the GI50 was inactive: > 100 µM.

Take `N[C@]1(C(=O)O)C[C@@H]2C(Br)=NO[C@@H]2C1`: the GI50 is inactive: > 100 µM.

Regarding `CN(CCNC(=O)c1n[nH]c2c1ccc1ccccc12)CCNC(=O)c1n[nH]c2c1ccc1ccccc12`, the GI50 is inactive: 2.55 µM.

Regarding `Nc1nc(=O)n(C2OC(CO)C(O)C2O)c2ncc(-c3ccc(-c4ccccc4)cc3)nc12` (configuration not stated), the GI50 was inactive: 29.5 µM.

Take `CC1(C)OC[C@@H]([C@@]2(COC(c3ccccc3)(c3ccccc3)c3ccccc3)CC=CC(=O)O2)O1`: the GI50 is inactive: 53 µM.

Regarding `C=C1C(=O)C[C@H]2C(=C)C(=O)O[C@@H]2C2C1CC[C@@]2(C)O` (some centres not stated), the GI50 is inactive: > 100 µM.

Regarding `Cc1ccc([N+](=O)[O-])cc1S(=O)(=O)Nc1ccc(C2=NN(S(=O)(=O)c3cc([N+](=O)[O-])ccc3C)C(c3cccs3)C2)cc1` (configuration not stated), the GI50 is inactive: 23.4 µM.

`CC(C)CC(=O)OC[n+]1ccc(-c2c(COC(=O)NC(C)C)c(COC(=O)NC(C)C)c3n2CCC3)cc1`: the GI50 is inactive: > 100 µM.

For `COC(=O)C1=C(\O)C[C@@]2(C)CC[C@@H](C(=O)OC)C2C/C=C\1C(=O)OC` (some centres not stated), the GI50 was inactive: > 100 µM.

`CC(=O)c1ccc(-c2ccc(C(C)=O)s2)s1`: the GI50 was inactive: > 100 µM.

Turning to `N=C(N)NS(=O)(=O)c1ccc(NCCc2c3ccccc3nc3ccccc23)cc1`, the GI50 was inactive: > 100 µM.

With `COc1ccc(/N=N/C(=O)NC(CC(C)C)C(=O)NC(C)C(=O)O)cc1` (configuration not stated), the GI50 is inactive: > 60.3 µM.

With `Cc1ccc(S(=O)(=O)NNC(=O)c2cc(C)ccc2NC(=O)C23CC4CC(CC(C4)C2)C3)cc1`, the GI50 is inactive: 26.7 µM.

Take `Nc1nc(Cl)cc(NCCC2(CO)CCC2)n1`: the GI50 was inactive: > 100 µM.

Take `Cc1nc2cc([N+](=O)[O-])ccc2c(NCCCN(C)C)c1C`: the GI50 was inactive: 5.62 µM.

For the molecule `FC(F)(Sc1ccccc1)c1nc2ccccc2o1`, the GI50 was inactive: > 100 µM.

With `CCOC(=O)C(NC(=O)c1nc[nH]c1[N+](=O)[O-])C(C)C` (configuration not stated), the GI50 was inactive: > 100 µM.

Take `CCOc1ccc2nc(NC(=O)c3c/c(=N\NC(=O)C[N+](C)(C)C)c4ccc(O)cc4o3)sc2c1`: the GI50 is inactive: 10.5 µM.

Regarding `O=C(CSc1nccc(=O)[nH]1)c1ccccc1`, the GI50 is inactive: 50.6 µM.

Turning to `COc1ccc(N2C(=O)C3c4[nH]c5ccc(OC)cc5c4C4CCC(c5ccccc5)CC4C3C2=O)cc1` (configuration not stated), the GI50 was inactive: > 60.7 µM.

Consider `O=[N+]([O-])c1ccc(/C=C/c2ccc(/N=N/c3ccc(/C=C/c4ccc([N+](=O)[O-])cc4S(=O)(=O)O)c(S(=O)(=O)O)c3)cc2S(=O)(=O)O)c(S(=O)(=O)O)c1`, for which the GI50 was inactive: > 83.9 µM.

`S=C(S)N1CCN(c2ccccc2)CC1`: the GI50 was inactive: > 100 µM.

As for `C/C(=N\Nc1nc2ccccc2o1)c1ccncn1`, the GI50 is active: 0.253 µM.

Consider `CC[C@H](C)[C@H]1NC(=O)[C@@H](NC(=O)[C@@H](CC(C)C)N(C)C(=O)C2CCCN2C(=O)[C@H](C)O)[C@@H](C)OC(=O)[C@H](Cc2ccccc2)N(C)C(=O)[C@@H]2CCCN2C(=O)[C@H](CC(C)C)NC(=O)[C@@H](C)C(=O)[C@H](C(C)C)OC(=O)C[C@@H]1O` (some centres not stated), for which the GI50 was active: < 0.00625 µM.

As to `COC(=O)C1OC2(CCCC3CC32)O[C@H]1C(=O)OC` (some centres not stated), the GI50 was inactive: 76.6 µM.

In the case of `O=[N+]([O-])C(=C/c1cccc2ccccc12)/C(=C\c1cccc2ccccc12)[N+](=O)[O-]`, the GI50 was inactive: 9.25 µM.

For the molecule `NC(Cc1ccccc1CP(=O)(O)O)C(=O)O` (configuration not stated), the GI50 was inactive: > 100 µM.

For `CC12CCC(=O)N1c1ccc([N+](=O)[O-])cc1N2` (configuration not stated), the GI50 is inactive: > 100 µM.

As for `COc1ccc(C(=O)c2sc(Nc3ccc(Cl)cc3)nc2N)cc1`, the GI50 is inactive: 15.3 µM.

In the case of `CNC=O`, the GI50 is inactive: > 10000 µM.
